Among all 410,000 compounds or so, about 1,200 (0.29%) were called active. The shares of active, inactive and inconclusive entries below differ from those in the screen. The call rests on the fitted dose curve; in most records, active means well fitted activation curve with a large enough effect; inconclusive means small, poorly fitted or top-dose-only effect; inactive means flat fitted curve, though single readings scatter. A potency beside an inconclusive call is a rough fit, not a confirmed value.
Assay: qHTS of Nrf2 Activators; further: nearly all actives have a fitted effect of over 65% in size; on activation: % of control where 0% means no effect
Details: AREc32 ARE-luciferase reporter (MCF7-derived line), luminescence, 24 h; activation: at 46.1 µM (top of the series)
Summary of the method: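 Luminescent ARE reporter assay in AREc32_Fluc cells: overnight plating at 37 deg C, 24 hr compound incubation, Steady-Glo added, 30 min RT before reading.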
Potency means the concentration at half of the fitted maximal effect; tags describe the fitted curve by direction and shape.

Compound	activation	Potency
Cc1ccc(C2/C(=C(\O)c3ccc4c(c3)OCCO4)C(=O)C(=O)N2CC2CCCO2)cc1 (configuration not stated)	inactive: -0.384%	
Cc1ccc(C(=O)/C=C/c2ccccc2)o1		inconclusive: 15.8 µM [activator, single point]
Cc1c(C#N)c(NC(=O)CCl)n(Cc2cccs2)c1C		inconclusive: 3.55 µM [activator, single point]
CCOc1ccc(CNC(=O)c2ccc3oc(=O)n(Cc4ccccc4)c3c2)cc1	inactive: 3.82%	
O=C1C/C(=C\c2c(F)cccc2Cl)N2CCC1CC2	inactive: -0.282%	
CC1(C)CC(=O)C=C(C#CC2(O)CCCCC2)C1		inconclusive: 3.55 µM [activator, single point]
CN(C)CCNC(=O)c1sc2nc(-c3ccccc3)cc(C(F)(F)F)c2c1N		inconclusive: 3.16 µM [activator, partial curve, poor fit]
C=CCSc1nc2ccccc2n1C(=O)/C=C/c1cc(OC)c(OC)c(OC)c1		inconclusive: 5.62 µM [activator, single point]
O=C1CC(c2ccccc2)Oc2ccc(Cl)cc21 (configuration not stated)		inconclusive: 22.4 µM [activator, single point]
Cc1ccc(C(=O)/C=C/c2ccc(F)cc2)o1		inconclusive: 25.1 µM [activator, single point]
C=C1CC2C(CCC3(C)C2CCC3(O)C(C)=O)C2(C)CCC(=O)C=C12 (configuration not stated)		inconclusive: 17.8 µM [activator, single point]
C=CCNC(=O)/C(C#N)=C/c1c(C)nn(-c2ccccc2)c1Cl		inconclusive: 20 µM [activator, single point]
CN(c1ccccc1)S(=O)(=O)c1cccc(C(=O)Nc2ccc3c(c2)CCC3)c1	inactive: 3.95%	
Cc1ccc(N2C(=O)[C@@H]3[C@H](C2=O)C2CCCN2[C@@H]3C(=O)c2ccccc2)cc1 (some centres not stated)		inconclusive: 3.16 µM [activator, partial curve, poor fit]
O=C(Cc1cccc([N+](=O)[O-])c1)Nc1cccc(C(=O)N2CCOCC2)c1	inactive: -0.148%	
Cc1cc(NS(=O)(=O)c2ccc(NC(=O)c3ccc([N+](=O)[O-])c(Cl)c3)cc2)no1		inconclusive: 35.5 µM [activator, partial curve, poor fit]
COc1ccc(Cl)cc1NC(=O)COC(=O)C1COc2ccccc2O1 (configuration not stated)		inconclusive: 15.8 µM [activator, single point]
COc1ccc(NC(=O)/C(C#N)=C\c2ccc(-c3cccc(C(=O)O)c3C)o2)cc1	inactive: -0.701%	
c1ccc2sc(Sc3ncnc4sccc34)nc2c1		active: 8.91 µM
COc1ccc(C2=Nc3ccccc3NC(c3cccs3)=N2)cc1	inactive: 0.46%	
O=[N+]([O-])c1cccc(-c2noc(-c3ccco3)n2)c1		active: 7.08 µM
O=C(CC(=O)c1ccccn1)c1ccccc1		active: 7.94 µM
COc1ccc(C(=O)Nc2ccc(S(=O)(=O)NC(C)=O)cc2)cc1[N+](=O)[O-]	inactive: 0.482%	
O=C(CSc1nc2ccccc2s1)NC1CCCc2ccccc21 (configuration not stated)		inconclusive: 14.1 µM [activator, single point]

Compound	activation	Potency
COCc1cc(=O)n2[nH]c(C(C)(C)C)cc2n1	inactive: -0.592%	
Cc1ccc(O)c(NC(=S)NC(=O)/C=C/c2ccccc2)c1		active: 11.2 µM
Cn1nc([N+](=O)[O-])c(C(C#N)c2nc3ccccc3n2C)c(Cl)c1=O (configuration not stated)		inconclusive: 17.8 µM [activator, single point]
Cc1cc(C)c(CN2CCC(n3nccc3NC(=O)c3ccccc3Cl)CC2)cc1C	inactive: 3.47%	
O=C(NC(=S)Nc1ccccc1)c1cccs1		inconclusive: 10 µM [activator, partial curve]
COc1ccccc1-c1nc(-c2ccc(Br)cc2)no1		inconclusive: 1.78 µM [activator, full curve, poor fit]
CCOCCc1nnc(NC(=O)CCS(=O)(=O)c2ccccc2)s1		inconclusive: 17.8 µM [activator, single point]
O=C(C=Cc1ccccc1Cl)c1ccccc1		inconclusive: 10 µM [activator, partial curve]
COc1ccc(C(C)(O)c2nc(-c3ccoc3)cs2)cc1 (configuration not stated)		inconclusive: 25.1 µM [activator, single point]
C=CS(=O)(=O)c1sc(Cl)c(N2CCOCC2)c1[N+](=O)[O-]		inconclusive: 3.16 µM [activator, full curve]
O=[N+]([O-])c1ccc(Oc2cccc3cccnc23)c([N+](=O)[O-])c1		inconclusive: 14.1 µM [activator, single point]
COc1ccc(CC(=O)Nc2ccc3nc(Nc4cccc(Cl)c4)cc(C)c3c2)cc1OC	inactive: 0.364%	
CC1(C)CC(=O)c2c(S(C)(=O)=O)sc(Br)c2C1		inconclusive: 22.4 µM [activator, single point]
N#CCSc1nccc(/C=C/c2ccccc2)n1		active: 11.2 µM
C(=N\Nc1ccccn1)/c1cccnc1		inconclusive: 20 µM [activator, single point]
C[N+](C)(C)CCC(=O)N1C/C(=C/c2ccccc2)C(=O)/C(=C\c2ccccc2)C1		inconclusive: 5.62 µM [activator, single point]
O=S(=O)(NCc1ccco1)c1cnc(Cl)c(Br)c1		inconclusive: 20 µM [activator, single point]
Cc1ccc(S(=O)(=O)CCC(=O)Nc2nc3c(s2)CCCC3)cc1		inconclusive: 15.8 µM [activator, single point]
O=C(C1=C(O)C(=O)N(c2ncccn2)C1c1ccc(Cl)c(Cl)c1)c1ccco1 (configuration not stated)		inconclusive: 20 µM [activator, partial curve, poor fit]
N#C/C(=C\c1ccc[nH]1)C(=O)Nc1ccccc1F		active: 11.2 µM
c1ccc(-c2ccc3ccccc3n2)cc1		inconclusive: 12.6 µM [activator, single point]
C=CCN=c1scc(-c2ccco2)n1/N=C/c1ccc(O)c(O)c1O		inconclusive: 14.1 µM [activator, single point]
CCOC(=O)c1cnn2c(C(F)(F)F)cc(-c3ccco3)nc12		inconclusive: 17.8 µM [activator, partial curve, poor fit]
O=C(CCc1nnc2ccc(NCc3ccco3)nn12)Nc1cc(F)ccc1F		inconclusive: 15.8 µM [activator, single point]

Compound	activation	Potency
Cn1cc([N+](=O)[O-])c(C(=O)Nc2nc(-c3ccc(Cl)cc3)cs2)n1		inconclusive: 5.62 µM [activator, single point]
CC(=O)c1sc(NC(=O)CCS(=O)(=O)c2ccc(Cl)cc2)nc1C		inconclusive: 3.55 µM [activator, single point]
CC(C)C/C(O)=C/c1nc2cc(Cl)ccc2oc1=O		inconclusive: 15.8 µM [activator, partial curve, poor fit]
O=C(CCl)Nc1ccc(S(=O)(=O)Nc2nccs2)cc1		inconclusive: 25.1 µM [activator, single point]
O=C(Nc1ccccc1C(=O)N/N=C/c1ccco1)c1ccc(Cl)cc1		inconclusive: 3.98 µM [activator, partial curve, poor fit]
Cc1ccc2oc(=O)c(/C=C(\O)c3sc(C)nc3C)nc2c1		inconclusive: 22.4 µM [activator, single point]
COc1cc(/C=N/Nc2ccccn2)ccc1O		active: 8.91 µM
O=C(/C=C/Nc1ccc(F)cc1F)c1cccs1		inconclusive: 3.55 µM [activator, partial curve, poor fit]
CCCC(=O)c1cc2c(cc1NC(=O)c1cccs1)OCCO2	inactive: 2.69%	
O=C(CC1SC(N2CCCC2)=NC1=O)Nc1ccc(C(=O)Nc2ncccc2O)cc1 (configuration not stated)		active: 15.8 µM
Cc1ccc(N/C=C/C(=O)c2ccccc2)cc1Br		active: 11.2 µM
CSc1ncnc2[nH]ccc12	inactive: -0.0744%	
CCCCC(=O)Nc1cccc(-c2nc3ncccc3o2)c1	inactive: 0.156%	
C=CCN1C(=O)C2(NNc3ccccc3O2)c2ccccc21 (configuration not stated)		inconclusive: 14.1 µM [activator, partial curve, poor fit]
O=C(Nc1nc(-c2cc(Cl)sc2Cl)cs1)c1ccccc1		active: 10 µM
Cc1c(NC(=O)c2nc3ccccc3n(C)c2=O)cccc1[N+](=O)[O-]		inconclusive: 22.4 µM [activator, single point]
O=C(Cn1ncc(Cl)c(Cl)c1=O)NC1CCCCC1		inconclusive: 3.16 µM [activator, partial curve, poor fit]
CC1=C/C(=C\c2ccc3c(c2)OCO3)C(=O)S1		inconclusive: 31.6 µM [activator, single point]
CN(C)CCN(C(=O)/C=C/c1cccs1)c1nc2c(F)cc(F)cc2s1		inconclusive: 2.82 µM [activator, full curve, poor fit]
Cn1c(=O)c2nc(SCC(=O)Nc3cc(Cl)ccc3Cl)n(C)c2n(C)c1=O	inactive: -0.103%	
OC(c1cccs1)c1nccc2ccccc12 (configuration not stated)		inconclusive: 28.2 µM [activator, single point]
CCOc1ccc(/C=C/c2c([N+](=O)[O-])c(=O)n(C)c(=O)n2C)cc1		inconclusive: 22.4 µM [activator, single point]
CCOC(=O)COc1ccc2ccccc2c1/C=C/[N+](=O)[O-]		inconclusive: 10 µM [activator, partial curve]
CC(=O)c1sc(-c2cccc(Cl)c2)nc1C		inconclusive: 20 µM [activator, partial curve, poor fit]

Reference: PubChem BioAssay AID624171 (National Center for Advancing Translational Sciences (NCATS), 2012)
